“And” between values parts separate entries of the source, which are not always exact repeats. Equal values may be shown once. Hit rate of the full screen: of about 400,000 compounds, about 2,200 (0.55%) were called active. About 1% were inconclusive and are not listed. The call rests on the fitted dose curve; in most records, active means well fitted inhibition curve with a large enough effect; inconclusive means small, poorly fitted or top-dose-only effect, or another doubt; inactive means no such curve, though single readings can be large or run the other way. The entries are a selection whose mix differs from that of the whole data set. The source holds several records for some structures; these can differ, active in one and inactive in another.
target: DNA polymerase kappa (Homo sapiens) (UniProt Q9UBT6); test: qHTS for Inhibitors of Polymerase Kappa; conditions: purified Pol kappa, fluorescent DNA synthesis assay, 10 min; series mostly up to 107 µM; activity, negative = inhibition: at the top concentration
Procedure, shortened: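 Kinetic fluorescence readout at 0 and 10 min followed reaction start with substrate at 50 nM final. Beforehand, enzyme (10 nM Pol kappa) stood 15 min with compound at room temperature; buffer-only wells were negative controls.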
On the % scale 0 is the no-effect control and ±100 the full control effect; potency means the concentration at half of the fitted maximal effect.

Sequence of UniProt Q9UBT6 (Q9UBT6 whole entry, looked up): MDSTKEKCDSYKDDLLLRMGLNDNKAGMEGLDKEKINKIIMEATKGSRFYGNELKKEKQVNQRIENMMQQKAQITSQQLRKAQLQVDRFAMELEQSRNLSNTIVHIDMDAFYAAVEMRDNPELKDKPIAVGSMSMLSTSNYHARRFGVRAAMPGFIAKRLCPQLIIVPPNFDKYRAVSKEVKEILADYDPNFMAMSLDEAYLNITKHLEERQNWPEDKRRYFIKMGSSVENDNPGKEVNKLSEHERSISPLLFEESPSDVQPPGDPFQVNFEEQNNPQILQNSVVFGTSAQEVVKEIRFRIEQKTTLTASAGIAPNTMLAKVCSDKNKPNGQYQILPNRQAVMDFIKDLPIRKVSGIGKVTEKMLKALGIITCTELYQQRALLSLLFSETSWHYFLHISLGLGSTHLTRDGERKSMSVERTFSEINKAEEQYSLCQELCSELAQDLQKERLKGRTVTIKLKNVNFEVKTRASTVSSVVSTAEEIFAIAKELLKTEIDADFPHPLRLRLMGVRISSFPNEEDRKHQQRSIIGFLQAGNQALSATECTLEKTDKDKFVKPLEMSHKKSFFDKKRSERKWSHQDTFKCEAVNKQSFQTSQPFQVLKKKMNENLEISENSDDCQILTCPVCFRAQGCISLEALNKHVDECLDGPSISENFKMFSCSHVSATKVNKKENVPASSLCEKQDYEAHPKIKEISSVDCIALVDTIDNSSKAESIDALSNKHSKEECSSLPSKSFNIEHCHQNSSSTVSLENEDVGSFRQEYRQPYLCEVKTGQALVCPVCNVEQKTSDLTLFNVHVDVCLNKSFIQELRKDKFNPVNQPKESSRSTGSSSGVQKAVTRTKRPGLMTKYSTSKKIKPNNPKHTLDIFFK

Molecule | activity, negative = inhibition | Potency
H-KPVGKKRRPVKVYP-OH | inactive: 12.9% [at 60.1 µM] | 
CCC[C@@H]1CCCO[C@@](C(=O)NCc2cc(C)n(C)n2)(C(F)(F)F)C1 | inactive: 1.98% | 
CN(C)S(=O)(=O)c1cc(NC(=O)COC(=O)/C=C/c2ccco2)ccc1Cl |  | active: 31.6 µM
CCOc1ccc(NC(=O)CSc2nc(NS(=O)(=O)c3ccc(C)cc3)cc(=O)[nH]2)cc1 |  | active: 39.8 µM
O=C(O)C1Nc2ccc(Br)cc2C2C=CCC12 (configuration not stated) |  | active: 10 µM
CN1CCCN=C1/C=C\c1cccs1 | inactive: 0.652% [at 12 µM] | 
CCC(=O)Nc1cc2c3c(c1)CCN3C(=O)CC2 |  | active: 79.4 µM
CCOC(=O)[C@@H]1[C@H]2COc3cc(OC)ccc3[C@H]2N2C(=O)N(c3cccc(F)c3)C(=O)[C@]12C | inactive: -3.87% | 
C=C1CC[C@@H]2[C@](C)(CO)[C@H](O)CC[C@@]2(C)[C@@H]1/C=C/C1=CCOC1=O | inactive: -7.49% | 
O=C(O)[C@@H]1C[C@@H](C(=O)O)N1 |  | inactive
CC(=O)c1ccc(S(=O)(=O)N2CCN(C(=O)/C=C/c3ccc4ccccc4n3)CC2)cc1 |  | active: 79.4 µM
O=C1CC(=O)NC(SCC(=O)Nc2ccccc2[N+](=O)[O-])=N1 |  | active: 39.8 µM
COc1cc(NC(=O)c2cccs2)c(C(=O)OCC(=O)NCc2ccco2)cc1OC |  | active: 79.4 µM
Nc1ccc(O)c2c1C(=O)c1ccccc1C2=O |  | active: 28.2 µM
CC(N=Cc1cccc(O)c1O)c1ccccc1 (configuration not stated) |  | active: 12.6 µM
CCOC(=O)COc1ccc2c(C)c(CCN(CC)CC)c(=O)oc2c1Cl |  | inactive
Cc1ccc(/C(=C\CN2CCCC2)c2ccccn2)cc1 |  | inactive
O=C(N/N=C/c1ccc([N+](=O)[O-])o1)c1ccc(O)cc1 | inactive: -23.1% | 
CC(C)=CCc1c(O)cc2oc3c(CC=C(C)C)c(O)c(O)c(CC=C(C)C)c3c(=O)c2c1O |  | active: 79.4 µM
COCc1cc(O)c(O)c(O)c1-c1c(COC)cc(O)c(O)c1O |  | active: 794 nM and active: 316 nM and active: 212 nM
O=c1cc(O)nc(SCc2ccccc2)n1-c1ccccc1 | inactive: -31.9% | 

Molecule | activity, negative = inhibition | Potency
Cn1cc(C2=C(c3ccc(Cl)cc3Cl)C(=O)NC2=O)c2ccccc21 |  | inactive
Cn1c(SCC(=O)N/N=C/C=C/c2ccco2)nc2ccccc21 |  | active: 79.4 µM
Cc1ccc(C(=O)Nc2ccc(S(=O)(=O)O)c3cc(S(=O)(=O)O)cc(S(=O)(=O)O)c23)cc1NC(=O)c1cccc(NC(=O)Nc2cccc(C(=O)Nc3cc(C(=O)Nc4ccc(S(=O)(=O)O)c5cc(S(=O)(=O)O)cc(S(=O)(=O)O)c45)ccc3C)c2)c1 | inactive: -98.8% | 
CCCCCCCCCCC(C)(C)C(=O)Nc1c(OC)cc(OC)cc1OC | inactive: -22.6% | 
CC[C@@H]1C(c2ccccc2)=NN(c2ccccc2)[C@H]1C(=O)N1CCOC1=O | inactive: 3.54% | 
CC(C)[C@@H]1NC(=O)[C@H](Cc2ccccc2)NC(=O)[C@@H](CC(=O)O)NC(=O)CNC(=O)[C@H](CCCNC(=N)N)NC1=O | inactive: 4% [at 19.4 µM] | 
CC(C)C[C@@H](C(=O)N[C@@H](Cc1c[nH]c2ccccc12)C(N)=O)N1C[C@]2(CCCN2C(=O)[C@H](Cc2ccccc2)NC(=O)[C@H](Cc2ccccc2)NC(=O)[C@H](CCC(N)=O)NC(=O)[C@H](CCC(N)=O)NC(=O)[C@@H]2CCCN2C(=O)[C@H](CCCCN)NC(=O)[C@@H]2CCCN2C(=O)[C@@H](N)CCCNC(=N)N)CC1=O | inactive: 17.8% [at 60.1 µM] | 
COc1ccc(C2CC(=O)Oc3ccc(C(C)(C)C)cc32)cc1 (configuration not stated) | inactive: -1.04% | 
CC(O)[C@@H](N)C(=O)O (some centres not stated) | inactive: 7.07% [at 19.4 µM] | 
CN(C)c1ccc(/C=C/C=C/c2ccnc3ccccc23)cc1 | inactive: -18.6% | 
C=CCc1ccccc1OC[C@H](O)CNC(C)C | inactive: -1.14% [at 12 µM] | 
COc1ccccc1C1CC(=O)Oc2ccc(C(C)(C)C)cc21 (configuration not stated) | inactive: -15% | 
COc1cccc(N2CCN(C(=O)c3cc4c(s3)-c3ccccc3OC4)CC2)c1 | inactive: 0.201% | 
O=C(C[C@H]1C/C=C\CC[C@H](Cc2ccc(F)cc2)C(=O)O[C@@H](c2ccccc2)CNC1=O)N[C@@H](CO)Cc1ccccc1 | inactive: -6.44% | 
CCCCCCCCCCCCCCC[C@@H](O)[C@@H](N)CO |  | inactive
CC[C@@]1(O)C[C@H](O[C@H]2C[C@@H](N(C)C)[C@@H](O[C@H]3C[C@@H](O)[C@@H](O[C@H]4CCC(=O)[C@@H](C)O4)[C@@H](C)O3)[C@@H](C)O2)c2c(cc3c(c2O)C(=O)c2c(O)cccc2C3=O)[C@H]1C(=O)OC |  | active: 4.47 µM
CCCCCCNC(=O)c1cc(-c2ccco2)nc2ccccc12 |  | active: 50.1 µM
O=[N+]([O-])c1cc(/C=N/Nc2nc3ccccc3[nH]2)c(O)cc1O |  | active: 39.8 µM
CCN(CC)Cc1cc(O)c(CN(CC)CC)cc1O |  | active: 8.91 µM
O=C(O)CC(C(=O)O)N1C(=O)/C(=C/c2ccc(-c3nc4ccccc4s3)o2)SC1=S (configuration not stated) |  | active: 4.47 µM
O=c1ccc(-c2ccccc2)nn1Cc1ccc(F)cc1Cl | inactive: -1.25% | 

Molecule | activity, negative = inhibition | Potency
Nc1ccc(S(=O)(=O)Nc2ccc(Cl)nn2)cc1 |  | inactive
O=C1CCN(Cc2ccccc2)CCN1CCSc1ccccc1 | inactive: 4.42% | 
Cc1ccncc1C(=O)O | inactive: 14.5% [at 60.1 µM] | 
O=C(C[C@H]1C/C=C\CC[C@H](Cc2ccc(F)cc2)C(=O)O[C@H](c2ccccc2)CNC1=O)N[C@H](CO)Cc1ccccc1 | inactive: -17.8% | 
CN(C)CCC[C@@]1(c2ccc(F)cc2)OCc2cc(C#N)ccc21 |  | inactive
CCCC1OC2C[C@@H]3[C@H]4CCC5=CC(=O)C=C[C@]5(C)[C@H]4C(O)C[C@]3(C)[C@]2(C(=O)CO)O1 (some centres not stated) | inactive: -2.02% | 
CC(=O)Nc1cc(NC(C)=O)cc(-c2nc3ccccc3[nH]2)c1 | inactive: 2.42% | 
CCOC(=O)c1c[nH]c2nc(C)ccc2c1=O | inactive: 7.58% | 
Nc1nc2[nH]cc(CCc3ccc(C(=O)NC(CCC(=O)O)C(=O)O)cc3)c2c(=O)[nH]1 (configuration not stated) | inactive: 0.451% [at 19.4 µM] | 
O=C(O)c1ccc2c3n(nc2c1)-c1ccc(Cl)cc1CO3 |  | active: 31.6 µM
CCN(CC)Cc1cc2[nH]c3c4ccc(Cl)cc4ncc3c2cc1OC | inactive: -20.2% | 
Nc1nc(=S)c2ncn([C@H]3O[C@@H](CO)[C@@H](O)[C@@H]3O)c2[nH]1 | inactive: -8.45% [at 12 µM] | 
CC1CCc2nc3ccc(S(=O)(=O)N4CCC(C(=O)NCc5ccccc5Cl)CC4)cc3c(C(=O)O)c2C1 (configuration not stated) | inactive: -39.4% | 
O=C(NCc1ccco1)c1cc2ccc(O)cc2oc1=O |  | active: 79.4 µM
OC[C@H]1OC(O)[C@@H](O)[C@@H](O)[C@@H]1O (some centres not stated) |  | inactive
CC1=C(\C=C/C(C)=C/C=C\C(C)=C\C(=O)O)C(C)(C)CCC1 | inactive: -6.52% [at 12 µM] [middle of 5 runs] | 
Cc1ccc(-c2csc3ncn(CC#N)c(=O)c23)cc1C |  | active: 79.4 µM
CCOC(=O)c1[nH]c2c(c1C)C(=O)CC(c1ccco1)C2 (configuration not stated) |  | active: 56.2 µM
CCc1cccc(NS(=O)(=O)c2c(C)[nH]c(=O)[nH]c2=O)c1 | inactive: -4.55% [at 60.1 µM] | 
OCCCc1ccccc1 | inactive: 16.2% [at 60.1 µM] | 
NCCS(=O)(=O)O |  | inactive

Molecule | activity, negative = inhibition | Potency
O=c1c(O)cccc2cc(O)c(O)c(O)c12 |  | active: 794 nM and active: 891 nM
COc1ccc(Cl)cc1C(=O)Nn1cnc2ccccc2c1=O | inactive: -1.62% | 
CN(C)C(=O)NC1CCCCCCC1 | inactive: 11.6% [at 60.1 µM] | 
OC[C@@H]1OC(O)[C@@H](O)[C@H](O)[C@H]1O (some centres not stated) | inactive: 15.4% [at 60.1 µM] | 
CCOC(=O)[C@@H]1[C@H]2COc3cc(OC)ccc3[C@H]2N2C(=O)N(c3cccc(F)c3)C(=O)[C@@]12C | inactive: -8.54% | 
CCN(CC)CCNC(=O)c1cc(S(C)(=O)=O)ccc1OC |  | inactive
O=C(/C=C/c1ccc(Br)cc1)c1ccc(NC(=O)c2ccco2)cc1 | inactive: -6.27% | 
O=C1OCCN1C(=O)[C@H]1[C@H](c2ccc(Cl)cc2)C(c2cccc(Cl)c2)=NN1c1ccccc1 | inactive: -14% | 
CC(C)NC[C@@H](O)COc1ccc(COCCOC(C)C)cc1 | inactive: -8.42% [at 12 µM] and inactive: -5.51% [at 19.4 µM] | 
Cc1cc(/C=C2\SC(=S)NC2=O)c(C)n1C |  | active: 79.4 µM
CC[C@@H](C)[C@H]1O[C@]2(CC[C@H]1C)C[C@@H]1C[C@@H](CC=C(C)[C@@H](O[C@H]3C[C@H](OC)[C@@H](O[C@H]4C[C@H](OC)[C@@H](O)[C@H](C)O4)[C@H](C)O3)[C@@H](C)C=CC=C3CO[C@@H]4[C@H](O)C(C)=C[C@@H](C(=O)O1)[C@]34O)O2 | inactive: -12.9% [at 60.1 µM] | 
CN(C)c1ccc(O)c2c1C[C@H]1C[C@H]3[C@@H](N(C)C)C(=O)C(C(N)=O)=C(O)[C@]3(O)C(=O)C1=C2O | inactive: -4.16% [at 12 µM] | 
COc1cc(OC)cc(C(=O)Nc2nnc(NC(=S)Nc3ccccc3)s2)c1 |  | active: 79.4 µM
CCC(=O)OCC(=O)C1(OC(=O)CC)[C@H](C)C[C@H]2[C@H]3[C@H]([C@@H](O)C[C@@]21C)[C@@]1(C)C=CC(=O)C=C1C[C@H]3Cl (some centres not stated) | inactive: -19.6% | 
C=CC[C@@H]1/C=C(\C)C[C@H](C)C[C@H](OC)[C@H]2O[C@@](O)(C(=O)C(=O)N3CCCC[C@H]3C(=O)O[C@H](/C(C)=C/[C@@H]3CC[C@@H](O)[C@H](OC)C3)[C@H](C)[C@@H](O)CC1=O)[C@H](C)C[C@@H]2OC |  | inactive
O=C1ON=C(c2ccccc2)/C1=C\c1ccco1 | inactive: -18.6% | 
O=C(C[C@H]1C/C=C\CC[C@@H](Cc2ccc(F)cc2)C(=O)O[C@H](c2ccccc2)CNC1=O)N[C@H](CO)Cc1ccccc1 | inactive: -4.87% | 
CC1(C)CC(=O)C2=C(C1)OC(N)=C(C#N)C2c1ccc[nH]1 (configuration not stated) |  | active: 79.4 µM
C=CCSC1=N/C(=C\C=C\c2ccco2)C(=O)S1 |  | active: 14.1 µM

From PubChem BioAssay AID588579 (National Center for Advancing Translational Sciences (NCATS), 2011)
